# Data reported in PMC4336329 (PLoS ONE, 2015).
# Among all 310,000 compounds or so, about 14,000 (4.5%) showed an effect of 50% or more. Effects have a minus sign here. This is one part of the list. Where a SMILES comes first, the peptide text is derived from it. [ ]: non-standard residue; d: D form. The star is where a group is joined. Hyp = O=C(O)[CH]1C[CH](O)CN1; Cbz = O=C(OCc1ccccc1)*; OBn = c1ccc(CO*)cc1
# Biological target: human ether-à-go-go-related gene (hERG) potassium channel (human, UniProt Q12809)
# Sequence (Q12809 whole entry, looked up): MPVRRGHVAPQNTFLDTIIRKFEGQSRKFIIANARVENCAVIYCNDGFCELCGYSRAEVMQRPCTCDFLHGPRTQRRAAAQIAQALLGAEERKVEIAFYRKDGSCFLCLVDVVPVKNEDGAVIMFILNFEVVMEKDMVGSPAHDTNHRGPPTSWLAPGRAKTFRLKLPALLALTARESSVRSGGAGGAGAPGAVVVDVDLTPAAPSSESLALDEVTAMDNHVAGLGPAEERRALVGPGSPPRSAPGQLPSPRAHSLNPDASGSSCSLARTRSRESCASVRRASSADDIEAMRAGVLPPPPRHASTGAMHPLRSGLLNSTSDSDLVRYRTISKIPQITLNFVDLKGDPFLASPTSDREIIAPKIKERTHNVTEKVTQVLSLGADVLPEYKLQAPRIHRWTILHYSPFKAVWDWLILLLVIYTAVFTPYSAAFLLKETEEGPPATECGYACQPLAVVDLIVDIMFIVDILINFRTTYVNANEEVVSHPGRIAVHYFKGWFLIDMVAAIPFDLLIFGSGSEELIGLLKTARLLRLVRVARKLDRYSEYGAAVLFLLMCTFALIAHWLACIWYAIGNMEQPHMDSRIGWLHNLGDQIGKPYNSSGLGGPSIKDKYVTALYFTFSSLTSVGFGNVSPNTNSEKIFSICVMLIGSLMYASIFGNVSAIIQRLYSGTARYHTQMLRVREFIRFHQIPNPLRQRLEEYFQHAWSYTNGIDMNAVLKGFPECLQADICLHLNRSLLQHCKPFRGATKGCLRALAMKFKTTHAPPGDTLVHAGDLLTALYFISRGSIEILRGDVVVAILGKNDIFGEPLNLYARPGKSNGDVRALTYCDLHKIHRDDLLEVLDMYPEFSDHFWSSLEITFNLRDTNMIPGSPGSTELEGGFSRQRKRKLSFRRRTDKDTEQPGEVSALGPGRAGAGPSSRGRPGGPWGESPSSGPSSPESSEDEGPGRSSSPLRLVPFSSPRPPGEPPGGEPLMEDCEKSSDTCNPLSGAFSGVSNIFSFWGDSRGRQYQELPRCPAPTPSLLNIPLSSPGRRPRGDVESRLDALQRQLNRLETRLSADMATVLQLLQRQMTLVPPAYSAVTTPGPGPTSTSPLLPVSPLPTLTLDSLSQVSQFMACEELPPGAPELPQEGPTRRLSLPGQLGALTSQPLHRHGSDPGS
# Assay: primary screen, population patch clamp on CHO cells stably expressing hERG
# 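Also: peak tail current of the secondary pulse compared with the same well before compound.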
row,SMILES,"hERG current change (%, negative = inhibition) at 10uM [%]"
1,N#Cc1c(-c2ccco2)cc(-c2ccccc2)[nH]c1=O,-9.89
2,OCCN1C2CCC1CC(O)(c1ccc(F)cc1)C2 (centres unmarked),4.71
3,OCc1nc2ccccc2n1/N=C/c1cccs1,22.3
4,CC1(C)Cc2c(C#N)c(SCCC#N)nc(N3CCOCC3)c2CO1,11.1
5,O=[N+]([O-])c1cccc(-c2nc(-c3ccccc3)no2)c1,7.53
6,O=C(c1ccc2c(=O)n(Cc3ccc4c(c3)OCO4)c(=O)[nH]c2c1)N1CCN(c2ccccc2)CC1,-6.05
7,CCOC(=O)c1sc(N=NC2=C(O)CCCC2=O)c(C(=O)OCC)c1C,22.6
8,Cn1c(SCc2ccccc2)nnc1-c1cnccn1,-3.65
9,CC(=O)NC(CC(=O)OCC(=O)c1c(N)n(CC(C)C)c(=O)n(C)c1=O)c1ccccc1 (centres unmarked),-3.32
10,Cc1ccc(-n2c(=O)[nH]c3cc(C(=O)NC4CCN(Cc5ccccc5)CC4)ccc3c2=O)cc1,11.2
11,CCOC(=O)CCC(=O)Nc1ccc(S(=O)(=O)Nc2cc(OC)nc(OC)n2)cc1,24.8
12,CCCCCOc1ccc(C(=O)CCC(=O)Nc2ccc(NC(C)=O)cc2)cc1,21
13,O=C(NCC(=O)N1CC(O)CC1C(=O)N1CCCC1C(=O)OCc1ccccc1)OCc1ccccc1 (stereo not drawn) (Cbz-Gly-[Hyp]-Pro-OBn; configuration not given here),26.7
14,Cc1ccc2nc(Cl)c(C#N)cc2c1,7.99
15,CCn1c(C(=O)N2CCC(C(=O)N3CCC4(CC3)OCCO4)CC2)cc2sccc21,-4.71
16,Cc1scc(C(=O)O)c1-c1c(C(=O)O)csc1C,23.8
17,CS(=O)(=O)N(Cc1nc2sc3c(c2c(=O)[nH]1)CCCC3)C1CCCCC1,6.55
18,C1=C(CCNc2ncnc3c2[nH]c2ccccc23)CCCC1,15.1
19,COc1ccc(-n2nnnc2/C=C/Nc2cc(C(F)(F)F)ccc2OC)cc1,15
20,COc1cc(CNc2ncn[nH]2)ccc1OCC(=O)NC(C)(C)C,24
21,CC(C)N(Cc1ccccc1)C(=O)COC(=O)c1cnccn1,-5.21

row,SMILES,"hERG current change (%, negative = inhibition) at 10uM [%]"
1,Brc1ccc(Oc2cc(Br)c(Br)cc2Br)c(Br)c1,23.4
2,CN1CCN(C(=O)C(=O)c2cn(CC(=O)N3CCCC3)c3ccccc23)CC1,18.7
3,COc1ccc(NC(=O)c2c(N)cnn2C)cc1,15.7
4,CC(=O)Nc1ccc(C2(c3ccc(NC(C)=O)cc3)C(=O)Nc3ccccc32)cc1,19.1
5,COC(=O)C(C)Oc1ccc2c(c1)O/C(=C\c1ccco1)C2=O (centres unmarked),-8.95
6,CC1(C)Cc2c(sc(NC(=O)COc3ccccc3)c2C#N)C(C)(C)N1,-9.66
7,CCC1CCC2(CC1)NC(=O)N(CC(=O)c1c(C)[nH]c3ccccc13)C2=O (centres unmarked),-7.81
8,COc1ccc(NC(=O)CN(C)C(=O)c2cc(S(=O)(=O)N3CCCCCC3)ccc2OC)cc1,-24
9,Cc1ccc(C)c(-n2c(-c3ccco3)n[nH]c2=S)c1,11.9
10,Cc1cc(S(=O)(=O)Nc2ccc3c(c2)COC3=O)ccc1F,7.2
11,O=C(COC(=O)c1ccc2ncsc2c1)Nc1cccc(Cl)c1,2.07
12,O=C(NC1CCCCC1)C(c1ccccn1)N(C(=O)c1csnn1)c1ccccc1F (centres unmarked),0.965
13,COc1ccc(-c2cc(C(F)F)n3ncc(C(=O)N4CCN5CCCC5C4)c3n2)cc1 (centres unmarked),-24.4
14,CC1C(=O)N(Cc2ccc([N+](=O)[O-])cc2)c2ccccc2N1C(=O)c1c(F)cccc1F (centres unmarked),-16.6
15,COCCCN1C(=O)/C(=C\c2ccc3c(c2)OCO3)C(C(=O)OC)=C1C,10.2
16,COc1ccc(C(=O)CCc2ccccc2O)c(OC)c1,1.09
17,CCc1nc2ccccc2c(C(=O)Nc2ccc(F)cc2)c1C,2.62
18,CCC(C)NC(=O)CCC(=O)NNc1nc2ccccc2c2nc(C)nn12 (centres unmarked),8.1
19,O=C(NCC1CCCO1)C1CCCN(S(=O)(=O)c2ccc(F)cc2)C1 (centres unmarked),8.21
20,Cc1cc(NC(=O)/C=C/c2ccccc2)no1,11.1
21,COc1ccc2c(c1)C(=O)N(Cc1ccccc1)C(=O)C2(C)C,6.19

row,SMILES,"hERG current change (%, negative = inhibition) at 10uM [%]"
1,CCCCOc1ccc(/C(O)=C2/C(=O)C(=O)N(CCN(C)C)C2c2ccc(O)c(OC)c2)cc1 (centres unmarked),1.38
2,Cc1cc(/C=N\NC(=O)COc2cccc3cccnc23)c(C)n1-c1ccc(Br)cc1,-9.98
3,CCOC(=O)C1CCN(C(=O)Cn2cc(C(=O)c3ccco3)c3ccccc32)CC1,-11.4
4,Cc1c(F)cccc1NC(=O)c1ccc2c(c1)CCN2S(C)(=O)=O,1.55
5,COc1cc(/C=C2\C(=N)N3N=C(S(C)(=O)=O)SC3=NC2=O)ccc1OCCOc1ccccc1C,7.27
6,O=C(OCC(=O)N1N=C(c2ccc(Cl)cc2)CC1c1ccco1)c1ccco1 (centres unmarked),27.4
7,CCn1cc(C(=O)N[C@@H](CCSC)C(=O)NCCN2CCOCC2)c(=O)c2cc3c(cc21)OCO3,21.2
8,Cc1cc(NC(=O)COc2ccc(N(C)S(=O)(=O)c3ccccc3)cc2)no1,-24.9
9,COc1cc(CNc2ccc3[nH]c(=O)[nH]c3c2)cc(Br)c1OCc1ccccc1F,4.58
10,Cc1ccc([N+](=O)[O-])cc1NC(=O)c1ccc(C(C)(C)C)cc1,-8.49
11,COc1ccccc1-c1cn(S(=O)(=O)c2ccc(C)cc2)nc1N,8.9
12,COc1ccc(C2=NOC(Cn3nc(C(=O)NCc4ccccc4OC)cc3-c3ccccc3)C2)cc1 (centres unmarked),-16.2
13,CCCCn1c(N)c(N(CCOC)C(=O)CSCc2ccc(C)cc2)c(=O)[nH]c1=O,13.4
14,COc1ccc(S(=O)(=O)NCC(c2cccs2)N2CCc3ccccc3C2)cc1 (centres unmarked),-46.1
15,Cn1c(CNC(=O)c2ccco2)nnc1SCC(=O)c1ccc(F)cc1,-0.66
16,Cc1ccc(NC(=O)CCNC(=O)N2C[C@H]3C[C@@H](C2)c2cccc(=O)n2C3)c(C)c1,8.36
17,C=CCSc1nnc(NC(=O)c2cccc(S(=O)(=O)N(C)c3ccccc3)c2)s1,0.621
18,O=C(CN1C(=O)C2CC=CCC2C1=O)Nc1nccs1 (centres unmarked),2.92
19,COc1ccc(-n2c(SCC(=O)Nc3cc(C)on3)nc3ccccc3c2=O)cc1Cl,5.94
20,O=C(O)c1cccc(NS(=O)(=O)c2ccc(Oc3ccc(S(=O)(=O)Nc4cccc(C(=O)O)c4)cc3)cc2)c1,20.3
21,COc1ccccc1OCC(=O)Nc1cccc(N(C)S(C)(=O)=O)c1,-26.1

row,SMILES,"hERG current change (%, negative = inhibition) at 10uM [%]"
1,Cl.OC(COc1c(F)cc(Br)cc1F)CN1CCc2ccccc2C1 (centres unmarked),-72.2
2,Cn1cc(Br)c(C(=O)N2CCN(c3cccc(Cl)c3)CC2)n1,-2.41
3,Nc1c(S(=O)(=O)[O-])cc(NC(=O)c2ccccc2)c2c1C(=O)c1ccccc1C2=O.[Na+],-8.77
4,O=C(NC(=S)NNC(=O)[C@H]1C[C@@H]1c1ccccc1)c1ccc(F)cc1,3.86
5,COc1ccc(CCn2c(-c3ccc(F)cc3)nc3c(c(=O)c4ccccc4n3C)c2=O)cc1OC,-24.8
6,O=C(C1CCN(S(=O)(=O)N2CCCCC2)CC1)N1CCCCC1,-0.696
7,CCOC(=O)C1=NNC(C(=O)c2ccccc2)C1c1ccc(Cl)cc1 (centres unmarked),-18.3
8,CCOc1ccc(S(=O)(=O)NCC(=O)N(C)Cc2cccnc2)cc1,-2.05
9,O=[N+]([O-])c1ccc(Nc2ccc(N3CCOCC3)cc2)c([N+](=O)[O-])c1,10
10,CCC1(c2ccc(F)cc2)NC(=O)N(CC(=O)Nc2ccc(C)c(S(=O)(=O)N3CCOCC3)c2)C1=O (centres unmarked),-1.48
11,CCOC(=O)c1c(-c2ccccc2)oc2ccc(O)c(CN(C)C)c12,-40.2
12,COC(=O)c1cccc(CSc2nnc(-c3ccco3)n2-c2ccccc2)c1,-33.9
13,CC(C)(C)S(=O)(=O)c1cnc(N2CCCC2)nc1N,5.53
14,O=C(Nc1cccnc1Oc1ncnc2cc(Cl)ccc12)c1ccc(F)cc1,3
15,Oc1ccc2c(c1)C1CCCC1(N1CCOCC1)O2 (centres unmarked),3.8
16,CCOc1ccc(N2C(=O)CC(N)C2=O)cc1 (centres unmarked),1.65
17,O=C(O)c1ccc2c(=O)n3c(nc2c1)/C(=C/c1cccc(O)c1)CC3,8.17
18,CCOC(=O)C1(Cc2ccc(OC)cc2)CCN(C(=O)Cc2cccnc2)CC1,-17.8
19,COc1ccccc1C(=O)NC(=O)Nc1cccc(Cl)c1,-0.649
20,Cc1c(Nc2nc(-c3ccccc3)cs2)c(=O)n(-c2ccccc2)n1C,-0.167
